# Experimental data reported in the supplement of paper PMC11417369.
# The list shows a part of the results.
# System: PF3D7_0420300 AP2 domain 1 (GST-tagged)
# Test: gcPBM binding intensity (ln(normalized median fluorescence intensity)); higher = stronger DNA binding
# Summary of the method: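 The highest Masliner-normalised natural-log median intensity across replicate spots of either probe orientation is reported as binding intensity. GST-tagged P. falciparum DNA-binding domains expressed in E. coli were applied for 1 h to an Agilent 4 × 180k array of primer-extended double-stranded 36-bp intergenic genomic probes plus negative controls, and bound protein was detected with Alexa488 anti-GST antibody and scanned at 488 nm.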
row,Sequence,gcPBM binding intensity (ln)
1,ATTATTATGTAGAAGGTGCTATGTTCTATAAATATA [GTGCAC_site9545],9.21
2,CTATGAACACACACATGTACATATATTAACTCGCTA [XGTACX_site8805],9.61
3,CCACTTGTGTAATGTTGTACAAAAATAAATATATTT [XGTACX_site4598],9.05
4,ATAATTAAAAATAATATATATATAATATGATATTAT [GTGCAC_negctrl_site194],9.03
5,TACACATACAGACATACACACATACACATATACACA [CACACA_site6918],9.88
6,AAAAAAAAAAAAAACACACACACACGCACATATACA [CACACA_site7288],10.2
7,TTTTTTCTTTTTTTTTTTAATTATAAACATGATATT [GTGCAC_negctrl_site144],9.06
8,TAAATATATATAACATGTACATAAAATATATATATA [XGTACX_site4431],9.26
9,TATCTTCATTGTTGACGTACAGTATTTCTAAACGTT [XGTACX_site3439],9.26
10,AATATAAATAAAAAATTGATTTCTTTAAAAAGGTAT [CACACA_negctrl_site1038],9.12
11,TTGTTCTTTCAAATTATACACACCAAAAAAAAAAAA [CACACA_site3070],9.14
12,TACAAATGAGAAATATGTACATAAAAAAAAAAAAAT [XGTACX_site801],9.52
13,TAATCATAAAAAAATACACACATATATAATATATAT [CACACA_site1983],9.58
14,ATACAAAATCTAATTTGTACACAATGTTTGATTTTT [XGTACX_site5438],9.23
15,TATCCATATTTGTTCACACACACACCCATTTATATA [CACACA_site3571],10.2
16,ATTTTTATGTTGAAAAGTACTTGAATCCCATGTAAC [XGTACX_site4453],9.09
17,TATTTATTTATTTAGTGTACATTTATATTTGTTCAT [XGTACX_site7575],9.42
18,TTCTTTTTTTTTAAAACAAACAAACAAACAAACAAA [CACACA_negctrl_site832],8.89
19,TTAATCTTTCCTACATGTACACACAGAAAAAAAAAA [XGTACX_site5213],9.25
20,TTTTTATTAAATAAAGCACACACAACAACTTTTCAC [CACACA_site9372],9.72
21,AAATATAAAAAAAAAAGTACTTTGTTACTTTTCTAT [XGTACX_site6034],8.84
22,AAAATAAATATAACCACACACGAAAGAGAGAGAAAA [CACACA_site3272],10

row,Sequence,gcPBM binding intensity (ln)
1,TAACCATAAGAAGATTGTACATAATAAAAGTATTCT [XGTACX_site1117],9.4
2,AACTGCAAAAAAAGACGTACAAATTATTAATTGCAA [XGTACX_site8929],9.24
3,ATTTAAAATGGTTATACACACATAAAAGGGGAAATG [CACACA_site2649],9.67
4,ATATATATATATATATGTACATACCCAATTGTGTAA [XGTACX_site6352],9.58
5,TACAGACATACATACACACATACATATATATATATA [CACACA_site1940],9.67
6,ATATAACATGGACACACACACATATATATATATTAT [CACACA_site6135],10.1
7,ATACAAATTAAGCCTCAAGTTCTTTTTTTTAACATA [XGTACX_negctrl_site580],9.07
8,AAAAAAAAGAATTATTGTACAAAAGAACAATAAATA [XGTACX_site1368],9.12
9,GTGAAATTATATTTTTGTACATATATTATATATTAT [XGTACX_site3387],9.37
10,GGTGCACCCATATACACACACAAATACAATGATAAA [CACACA_site1132],9.87
11,GTATATATCTAAAAATATATATATATATATATATAT [CACACA_negctrl_site788],8.93
12,ATCGAAGGGGTACAAAATAAAAATAATTCTTTCAAA [TGCATGCA_negctrl_site373],9.02
13,AAGTGTTATGAAATATGTACACATATATTATATATA [XGTACX_site6022],9.3
14,TATAAATAAATATGGAGTACCAAAAAAATTATAAAA [XGTACX_site7581],9.25
15,TTTTTTATTAAAAGCGAAAAAAATGAAAACTTTTTT [GTGCAC_negctrl_site605],8.77
16,TTTTTAATTAACTTTGTAAACTTATATATATATATA [TGCATGCA_negctrl_site311],9.13
17,AAGGAATATTAAGTGGGTACTAAAAAAAAATTAATT [XGTACX_site331],9.17
18,TTAAAGCACCCATGCACACACACAAGGGAAAAGAAA [CACACA_site4289],9.9
19,GAAGTAGATGGAAAAGTGCACTGTAATGGTTATATT,9.31
20,TGTATATAGAAACATACACACATATTAATTTTACAT [CACACA_site3126],9.54
21,ATGTAAATGTTATTATGTACATATTTATTCTTCAAA [XGTACX_site7377],9.15
22,TTAAGTCATAAATAAAGTACATAAATATAATATATA [XGTACX_site6304],9.17

row,Sequence,gcPBM binding intensity (ln)
1,TCCAATTAAATATATGAACACACATGTGAACTTTCT [CACACA_site9318],9.29
2,GGGGGTAGGGGAAGAAGTACAATGATCACTACAGTA [XGTACX_site1169],9.57
3,GTATATATATTTGTACGTACATATTGTTGTAAACAC [XGTACX_site8833],9.45
4,AAGAGAGACATCAACACACATACGTATGTATAGAAA [CACACA_site1397],9.49
5,TTTTTTATTGTGATACGTATATTATTTTATGATTAA [GTGCAC_negctrl_site202],9.31
6,TTCATTTTAATAATATGTACATAATATATTTAAAAA [XGTACX_site634],8.87
7,ATTTTTAATCATTTACAACCTAGTGATTATACAAAT [CACACA_negctrl_site1089],9.08
8,CGTATGCGTATATACACACCCACGTATATATATAAA [CACACA_site3200],9.31
9,ATATAATAATTGTACACATGCACACACAAATATTAT [TGCATGCA_site204],9.78
10,ATAGCCAAAAATCATGCACACCTAAAAAAAAAAAAA [CACACA_site8826],9.25
11,TATATTTATGTATATGTGCACATAAATTTAAGAATG [GTGCAC_site9512],9.13
12,GTATGTATAATATACACACTCACAAGCATTCAAATA [CACACA_site267],9.37
13,ATATAAACATGTTTGTGTACGTAATATGAAAAATAA [XGTACX_site8157],9.36
14,TTGTTTTTAAGAAAAACACACACTCCTGTTATTTTA [CACACA_site9230],9.4
15,AAATATTATACAAAAAAAAAAAAAAAAAAAATATAT [CACACA_negctrl_site52],9.39
16,ATTTTGTATATATTTTGTACATATTTTGTATATATT [XGTACX_site885],9.52
17,TATTAAATGAAACAAACACACATAGCCTTTAAATAT [CACACA_site1560],9.63
18,ATTTTTTTTTTTATAGTGGAACCACATTTGCCATTT [CACACA_negctrl_site1247],9.28
19,TTAGGACAAAAAAAAATAAAAATAAAATAAAATAAT [CACACA_negctrl_site1613],9.33
20,ATAAAATAAAACAGAGCACACATTTTATTTACATTC [CACACA_site696],9.52
21,AAATTATATATATTTACATGCAATATAATGAAATAA [TGCATGCA_site229],9.21
22,ATATATATATCATATTGTACATATTATTGTATAATC [XGTACX_site5020],9.21

row,Sequence,gcPBM binding intensity (ln)
1,GTTAAAATTTGTCAATGTACAGAAATAATAAAAAAA [XGTACX_site1879],9.11
2,AAAGTTTTTACCAAGTGTACATATATATATATATAT [XGTACX_site5786],9.15
3,TATTTTTTTTAGCGTACATGCAAAAAAAAAAAAAAA [TGCATGCA_site555],8.48
4,GTTTATTTATTTTATGTGCACATATAACAAAAAAAA,9.08
5,TTTTTTCTTTAATACTCAATATGATAAAAGTAACAC [XGTACX_negctrl_site163],8.91
6,AAAAATAAAAAGAATTGTACATATAAATCATATACA [XGTACX_site6860],9.25
7,GACCCAATGAAAAGGTCACACATTTTTTCTTTTCGA [CACACA_site5074],9.11
8,TAAAAATATATAAACAGTACATAAATTAAATAAATA [XGTACX_site6962],9.47
9,ACATATTTCCAATAATGTACATACAAAATAAGAATG [XGTACX_site2659],9.31
10,TGTTCATTTATTTACTTACACACTTTATATATGTGG [CACACA_site1410],9.63
11,TAAAAGTAGATATATACACACATAAATATAGATGTA [CACACA_site6457],9.46
12,ACAAAGTAAAATAATGCATGTAGGTATACATAATTA [TGCATGCA_site607],9.43
13,AATATTTTATATAAATGTACATTTATGAATAATATA [XGTACX_site8477],9.09
14,GTGCTAAAAGTATATGCACACACATATATATGCACA [CACACA_site8472],9.66
15,CATTTTATAAAAAGCACACATATAGTTATATGCACA [CACACA_site3691],9.24
16,TAAATTATAATAAATACACACAAATTATAATTCTAT [CACACA_site3942],9.44
17,TTTGAATCCTTATATACACACATTATATAATATTAT [CACACA_site4472],9.55
18,TATATATATATACATTGTACATTATTGATTATAACA [XGTACX_site1678],9.25
19,AAATTAGAATTAGGAACACACATATTTATATTTATA [CACACA_site7450],9.33
20,TTTATTCTCCGACACACACACATATATTTATTTATA [CACACA_site7377],9.95
21,ATATATAAAAAATGTGGTACATTCATTTATTATACA [XGTACX_site3495],9.19
22,AATAAATAAATATATACACACATATATCTGTACATA [CACACA_site9034],9.66
